“And” between values parts separate entries of the source, which are not always exact repeats. Equal values may be shown once. Screen size: about 48,000 compounds; about 1,200 (2.5%) were called active. About 2% were inconclusive and are not listed.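 The calls were made as follows: active = activation of at least 60% and not above a set upper limit (about 1 call in 100 departs from these limits); inconclusive = activation of 40% to 60%, or above that upper limit; inactive = activation under 40%.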 This is one part of the list. More than one record can exist for a structure, and the calls need not agree.
Target: Probable G-protein coupled receptor 32 (Homo sapiens) (UniProt O75388)
Assay: qHTS for Agonists of Human Resolvin D1 Receptor DRV1; also: 0% is about no effect
Conditions: CHO-K1 GPR32 beta-arrestin PathHunter luminescence, 90 min; at 76.9 µM; stronger effect = higher value; zero percent set by DMSO-only wells
Summary of the method: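 Engineered CHO-K1 line co-expressing GPR32-ProLink and EA-beta-arrestin. Compound treatment lasted 90 min at 37 °C. Luminescence was recorded after 1 h with substrate at ambient temperature, relative to DMSO basal wells.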

Chain of UniProt O75388 (O75388 whole entry, looked up): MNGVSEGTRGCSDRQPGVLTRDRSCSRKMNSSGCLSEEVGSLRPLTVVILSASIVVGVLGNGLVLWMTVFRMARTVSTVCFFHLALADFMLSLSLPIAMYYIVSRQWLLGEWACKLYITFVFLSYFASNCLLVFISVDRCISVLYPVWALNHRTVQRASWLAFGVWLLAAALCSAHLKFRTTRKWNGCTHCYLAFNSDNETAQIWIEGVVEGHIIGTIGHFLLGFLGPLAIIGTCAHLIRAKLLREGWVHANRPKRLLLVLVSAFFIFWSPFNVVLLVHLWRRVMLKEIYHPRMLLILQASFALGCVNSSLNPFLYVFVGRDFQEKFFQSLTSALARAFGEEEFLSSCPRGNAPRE

Compound | activation
COc1ccc(Cl)cc1NC(=O)c1nn(C)c2c1CS(=O)(=O)c1ccccc1-2 | inactive: -2.74%
COc1ccccc1NC(=O)CCn1c(=O)oc2cc(Cl)ccc21 | inactive: -7.31%
CCOc1cc(-c2nc(-c3ccc(-c4ccc(OC)cc4)nc3OC)no2)cc(OCC)c1OCC | inactive: 19.6%
COCCCNC(=O)C1CCN(c2cc(C)nc3c(-c4ccc(OC)c(OC)c4)c(C)nn23)CC1 | inactive: -10%
Cc1c(Cl)cccc1NC(=O)Cn1nc(C)c2sc3ccccc3c2c1=O | inactive: -6.96%
Cc1ccc(C)c(S(=O)(=O)c2nnn3c2nc(Nc2ccc(F)c(Cl)c2)c2sccc23)c1 | inactive: -10.7%
CCSc1nc2c(c(=O)[nH]c(=O)n2C)n1CC(O)COc1ccc(Cl)cc1 (stereo not drawn) | inactive: 9.21%
COc1ccc(N2CCN(C(=O)c3ccc4c(c3)CCN4S(C)(=O)=O)CC2)cc1 | inactive: 1.54%
CCCCOC(=O)c1ccc(NC(=O)Cc2coc3ccc(C(C)C)cc23)cc1 | inactive: -23.6%
Cc1ccc2c(c1)N(C(=O)N1CCC(C(=O)NCc3ccco3)CC1)CC(C)O2 (stereo not drawn) | inactive: -4.86%
Cc1ccc(S(=O)(=O)CCC(=O)N2CCN(c3nc4c(C)c(Cl)ccc4s3)CC2)cc1 | inactive: 25.7%
CN=C(NC#N)NCCSCc1csc(N=C(N)N)n1 | inactive: 2.56%
COc1cc(C(=O)N2CCc3c([nH]c4ccccc34)C2c2ccccc2)cc(OC)c1OC (stereo not drawn) | inactive: -30.5%
Cc1cccc(C(=O)Nc2nc(-c3ccc(Br)cc3)ns2)c1 | inactive: -12.4%
Cc1cccc(N(CC(=O)NCCSc2ccc(Cl)cc2)S(=O)(=O)c2ccccc2)c1C | inactive: -21.9%
COc1ccccc1OCCn1c(-c2ccc(Br)cc2)nc2ccccc2c1=O | inactive: -8.66%
CC(=O)N1CCC2(CC1)OC(=O)C(C)=C2C(=O)Nc1ccccc1C(F)(F)F | inactive: -8.67%
CCOC(=O)C1CCN(C(=O)Cn2ncc3c([nH]c4ccc(C)cc43)c2=O)CC1 | inactive: -8.97%
CSc1ncc(C(=O)N2CCN(c3ccc(F)cc3)CC2)c(C)n1 | inactive: -3.21%
COc1ccc(OC)c(C(O)CNC(=O)CN)c1 (stereo not drawn) | inactive: -6.14%
CC(S)C(=O)NCC(=O)O (stereo not drawn) | inactive: -40.6%

Compound | activation
CCCC(=O)O[C@]1(C(=O)COC(=O)CC)CC[C@H]2[C@@H]3CCC4=CC(=O)CC[C@]4(C)[C@H]3[C@@H](O)C[C@@]21C | inactive: 6.42%
CN(C)CCN1C(=O)c2ccccc2N(C)c2ccccc21 | inactive: -4.75%
CCCC(=O)OC[C@@H](OC(=O)CCC)[C@@H](OC(=O)CCC)[C@H](Cn1c2nc(=O)[nH]c(=O)c-2nc2cc(C)c(C)cc21)OC(=O)CCC | inactive: -3.31%
CCOC(=O)C1CCC(CN(Cc2c(Cl)cccc2Cl)S(=O)(=O)c2ccc(F)cc2)CC1 (stereo not drawn) | inactive: -18.7%
COc1cccc(-c2nn(C)c3sc(C(=O)N4CCN(c5cccc(C)c5)C(C)C4)cc23)c1 (stereo not drawn) | inactive: 20.2%
CCc1nnc(SCc2nc(-c3ccc(OC)cc3)oc2C)c2cc3sccc3n12 | inactive: -22.8%
COc1ccccc1CCNC(=O)Cn1ccc2cc(S(=O)(=O)N3CCCCCC3)ccc21 | inactive: -7.95%
Cc1ccc(C)c(N2CCN(C(=O)c3cc(S(=O)(=O)N4CCCC4)cn3C)CC2)c1 | inactive: -10.3%
Cc1ccc(Cl)cc1N1CCN(CCNC(=O)Nc2ccc(Cl)cc2)CC1 | active: 84.1%
COc1ccc(N2CCN(C(=O)c3nc(-c4ccc(Cl)cc4)n4c3CCCCC4)CC2)cc1 | inactive: -11.2%
CN1CCN(CCCN2c3ccccc3Sc3ccc(C(F)(F)F)cc32)CC1 | active: 63.7% and inactive: 23.3%
CCOc1ccc(CNC(=O)c2ccc(CS(=O)c3ccccc3)o2)cc1 (stereo not drawn) | inactive: -37.7%
O=C(C1CCN(S(=O)(=O)c2cccc3nonc23)CC1)N1CCN(c2ccccc2)CC1 | inactive: -3.37%
COc1ccc(NC(=O)c2nnn(Cc3ccc(Br)cc3F)c2N)c(OC)c1 | inactive: 35.1%
CS(=O)(=O)N1CCc2cc(C(=O)N3CCN(c4ccc(F)cc4)CC3)ccc21 | inactive: -6.74%
Cc1ccccc1NC(=O)Cn1nc(-c2ccc(F)cc2)c2cnc3ccccc3c21 | inactive: -13.2%
CC(=O)N1CCCc2ccc(NS(=O)(=O)c3ccc(F)cc3F)cc21 | inactive: -9.12%
Cc1ccc(N2CC(NC(=O)c3ccc4c(c3)OCO4)CC2=O)cc1 (stereo not drawn) | inactive: -1.62%
Cc1ccc(-n2c(SCC(=O)Nc3cccc(Cl)c3)nc3n[nH]c(C)c3c2=N)cc1 | inactive: 5.74%
COC(=O)Nc1nc2ccc(C(=O)c3cccs3)cc2[nH]1 | inactive: -11.9% and inactive: 5.09%
CCOc1ccc(-c2c(C)nn3c(C)c(C(=O)NCc4ccc(C)o4)cnc23)cc1OCC | inactive: 23.6%

Compound | activation
Cc1cc(N2CCC(C)CC2)nc2ccc(NC(=O)/C=C/c3cccc(Cl)c3)cc12 | inactive: 7.8%
Cn1c(Oc2ccc(F)cc2)nc2c1c(=O)n(Cc1ccccc1Cl)c(=O)n2C | inactive: 37.7%
O=C(NCCc1ccc(Cl)cc1)c1ccc(CS(=O)(=O)Cc2ccccc2F)o1 | active: 111%
CC(=O)N1CCc2c(sc3c2c(=O)n(-c2ccc(C)cc2)c(=O)n3CC(=O)Nc2ccccc2)C1 | inactive: -7%
CCc1ccccc1NC(=O)CSc1nnc(CC)c(CC)n1 | inactive: -6.74%
CSc1ccc(CNC(=O)c2cc3c(=O)n(Cc4ccco4)ccc3nc2C)cc1 | inactive: -17.3%
Cc1ccc2nc(NC(=O)c3cc(=O)c4cc(Cl)ccc4o3)sc2c1 | inactive: -16.4%
COc1ccccc1NC(=O)c1c(NC(=O)c2ccccc2F)sc2c1CCC2 | inactive: 12%
COc1ccc(Cn2ccc3nc(C)c(C(=O)Nc4ccc(C)c(F)c4)cc3c2=O)cc1 | inactive: 20.1%
Cc1ccc(-c2cc(C(=O)NCc3ccccc3)c3c(-c4ccc(C)cc4)[nH]nc3n2)cc1 | inactive: -10.5%
COC(=O)c1c(NC(=O)c2ccccc2C(=O)O)sc2c1CCCC2 | inactive: -4.13%
COC(=O)c1c(C)sc(-c2c(-c3cccc(Cl)c3)[nH]c3c2c(=O)[nH]c(=O)n3C)c1O | inactive: -8.25%
Cc1cc(C)cc(NC(=O)c2sc3nc(-c4cc5ccccc5oc4=O)[nH]c(=O)c3c2C)c1 | inactive: -3.61%
CCc1cccc(C)c1NC(=O)C(C)Sc1nc2c(c(=O)[nH]1)CCCC2 (stereo not drawn) | inactive: -8.9%
COc1ccccc1C(=O)Nc1nnc(SCc2cc(=O)n3ccc(C)cc3n2)s1 | inactive: -4.38%
Cc1ccc(OCc2ccc(-c3nc(C#N)c(N4CCC(C)CC4)o3)o2)cc1 | inactive: -22.1%
COc1ccc(-c2noc(N3CCN(c4cccc(C)c4C)CC3)n2)cc1OC | inactive: 0.633%
COc1ccc(CCNC(=O)CCc2c(C)nc3c(c(C)nn3-c3ccccc3)c2C)c(OC)c1 | inactive: -5.4%
Cc1cccc(N(C)C(=S)Oc2ccc3c(c2)CCC3)c1 | inactive: -0.135%
CCCNC(=O)CCC(=O)N1Cc2ccccc2Oc2ncccc21 | inactive: -9.79%
C=CC(=O)Nc1cc2c(Nc3ccc(F)c(Cl)c3)ncnc2cc1OCCCN1CCOCC1 | inactive: 1.27%

Compound | activation
CCc1ccccc1NC(=O)C1CCN(C2=NS(=O)(=O)C(c3ccc(C)c(C)c3)=C2C)CC1 | active: 89.4%
COc1ccc(C(=O)CN2C(=O)N(c3cc(C)ccc3C)S(=O)(=O)c3ccccc32)cc1 | inactive: -10.7%
CCOC(=O)c1c(C)oc2nc(C)nc(NC(C)c3ccccc3)c12 (stereo not drawn) | inactive: 1.03%
Cc1cccc(OCC(=O)Nc2ccc3c(c2)nc(CCNC(=O)c2ccco2)n3C)c1 | inactive: -2.44%
Cc1nc2c3ccccc3nc(NNC(=O)CCC(=O)N3CCN(c4ccccc4)CC3)n2n1 | inactive: -3.43%
CC1=C(C(=O)OCc2ccc(C)cc2)C(c2ccccc2Cl)CC(=O)N1 (stereo not drawn) | inactive: 27.3%
CNC[C@H](O)c1ccc(O)c(O)c1 | inactive: 40.6% and inactive: -1.68%
Cc1ccccc1-c1noc(CSc2nnc(-c3ccncc3)n2-c2ccc(F)cc2)n1 | inactive: -10.1%
Cc1ccc(OCCCCn2c(CCNC(=O)C(C)(C)C)nc3ccccc32)cc1 | inactive: 1.55%
Cc1sc2c(c1C)c(=O)n(-c1cccc(C(F)(F)F)c1)c(=O)n2Cc1ccccc1C#N | inactive: -4.5%
Cc1ccccc1NC(=O)CN1C(=O)CCn2nc(-c3cccn3C)cc21 | inactive: -17.3%
CCn1cc(C(=O)NCc2ccccc2Cl)c(=O)c2cc(S(=O)(=O)N3CCCCC3)ccc21 | inactive: 8.96%
Cc1ncc(CO)c2c1Oc1nc(-c3ccccc3)nc(SCC(=O)Nc3cccc(C(F)(F)F)c3)c1C2 | inactive: 2.53%
CCOc1ccc(N(CC)C(=O)CSc2n[nH]c(-c3ccccc3)n2)cc1 | inactive: -3.69%
O=C(CSc1n[nH]c(-c2ccccc2Cl)n1)N1CCN(c2ccccc2F)CC1 | inactive: -6.18%
O=C(NC1CCCC1)c1ccc2c(c1)N(Cc1ccccc1F)C(=O)c1ccccc1S2 | inactive: -21%
COc1ccc(-c2coc3c2c(C)cc2oc(=O)cc(C)c23)cc1 | inactive: 5.06%
O=C(Cc1ccccc1)Nc1cccc(-c2nc3cccnc3s2)c1 | inactive: -13.8%
CC1=C(C(=O)Nc2cccnc2)C(c2ccccc2)n2nc(SCc3ccccc3F)nc2N1 (stereo not drawn) | inactive: 13.7%
COc1ccc(CCN2C(=O)N(c3ccc(F)cc3)C(=O)C2CC(=O)Nc2ccc(F)c(F)c2)cc1 (stereo not drawn) | inactive: -4.54%

— PubChem BioAssay AID1346428 (National Center for Advancing Translational Sciences (NCATS), 2018)
